Molecular target: the molecule itself
Test: […], in 25 mM HEPES pH 7.15, 150 mM NaCl; […]

B1: pilus shaft from the F-like plasmid pED208 (natural protein)
chain: TDLLAGGKDDVKATFGADSFVMMCIIIAELIVGVAMYIRTKNLLILLGLVVVIVFTTVGLTFIK
notes: also called conjugative pilus; conjugation pilus
Q: Does B1 bind?
A: binds
